# Results taken from the supplement of paper PMC8728848.
# The other results are listed elsewhere or left out.
# Experiments:
# Assay in all cases: glycan array binding signal (z-score within array); higher = stronger binding
# Settings in all cases: glycan notation: IUPAC condensed, linker removed
# [1] = target: Fuc(a1-2)Gal(b1-4)GlcNAc(b1-3)Gal(b1-4)GlcNAc(b1-3)Gal(b1-4)GlcNAc
# Method in brief: (§1)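 Glycan array binding is given as a within-array Z-score, which can be read as non-binding when negative. The arrays, 3228 of them, came from the Consortium for Functional Glycomics database and were retained only where the protein sequence was available. Z-scores were averaged across arrays of the same protein sequence at different concentrations or buffers and across linkers.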
# [2] = target: Fuc(a1-2)Gal(b1-4)GlcNAc(b1-3)GalNAc
# Method in brief: as §1
# [3] = target: Fuc(a1-2)Gal(b1-4)GlcNAc(b1-3)[Fuc(a1-2)Gal(b1-4)GlcNAc(b1-6)]GalNAc
# Method in brief: as §1
# [4] = target: Fuc(a1-2)Gal(b1-4)GlcNAc(b1-3)[Fuc(a1-3)[Gal(b1-4)]GlcNAc(b1-6)]Gal(b1-4)Glc
# Method in brief: as §1
# [5] = target: Fuc(a1-2)Gal(b1-4)GlcNAc(b1-6)GalNAc
# Method in brief: as §1
# [6] = target: Fuc(a1-2)Gal(b1-4)GlcNAc6S
# Method in brief: as §1
# [7] = target: Fuc(a1-2)Gal(b1-4)[Fuc(a1-3)]GlcNAc
# Method in brief: as §1
# [8] = target: Fuc(a1-2)Gal(b1-4)[Fuc(a1-3)]GlcNAc(b1-2)Man(a1-3)[Fuc(a1-2)Gal(b1-4)[Fuc(a1-3)]GlcNAc(b1-2)Man(a1-6)]Man(b1-4)GlcNAc(b1-4)[Fuc(a1-6)]GlcNAc
# Method in brief: as §1
# [9] = target: Fuc(a1-2)Gal(b1-4)[Fuc(a1-3)]GlcNAc(b1-2)[Fuc(a1-2)Gal(b1-4)[Fuc(a1-3)]GlcNAc(b1-4)]Man(a1-3)[Fuc(a1-2)Gal(b1-4)[Fuc(a1-3)]GlcNAc(b1-2)Man(a1-6)]Man(b1-4)GlcNAc(b1-4)GlcNAc
# Method in brief: as §1
# [10] = target: Fuc(a1-2)Gal(b1-4)[Fuc(a1-3)]GlcNAc(b1-3)Gal(b1-4)[Fuc(a1-3)]GlcNAc
# Method in brief: as §1
# [11] = target: Fuc(a1-2)Gal(b1-4)[Fuc(a1-3)]GlcNAc(b1-3)Gal(b1-4)[Fuc(a1-3)]GlcNAc(b1-3)Gal(b1-4)[Fuc(a1-3)]GlcNAc
# Method in brief: as §1
# [12] = target: Fuc(a1-2)Gal(b1-4)[Fuc(a1-3)]GlcNAc(b1-3)GalNAc
# Method in brief: as §1
# [13] = target: Fuc(a1-2)Gal(b1-4)[Fuc(a1-3)]GlcNAc(b1-3)[Neu5Ac(a2-6)Gal(b1-4)GlcNAc(b1-6)]Gal(b1-4)Glc
# Method in brief: as §1
# [14] = target: Fuc(a1-2)Gal3S(b1-4)GlcNAc
# Method in brief: as §1
# [15] = target: Fuc(a1-2)Gal6S(b1-3)GlcNAc
# Method in brief: as §1
# [16] = target: Fuc(a1-2)Gal6S(b1-3)GlcNAc6S
# Method in brief: as §1
# Fuc(a1-2)Gal6S(b1-4)Glc = target: Fuc(a1-2)Gal6S(b1-4)Glc
# Method in brief: as §1
# [17] = target: Fuc(a1-2)Gal6S(b1-4)Glc6S
# Method in brief: as §1
# Fuc(a1-2)[Gal(a1-3)]Gal = target: Fuc(a1-2)[Gal(a1-3)]Gal
# Method in brief: as §1
# [18] = target: Fuc(a1-2)[Gal(a1-3)]Gal(b1-3)GalNAc
# Method in brief: as §1
# [19] = target: Fuc(a1-2)[Gal(a1-3)]Gal(b1-3)GalNAc(b1-3)Gal(a1-4)Gal(b1-4)Glc
# Method in brief: as §1
# [20] = target: Fuc(a1-2)[Gal(a1-3)]Gal(b1-3)GlcNAc
# Method in brief: as §1
# [21] = target: Fuc(a1-2)[Gal(a1-3)]Gal(b1-3)GlcNAc(b1-2)Man(a1-3)[Fuc(a1-2)[Gal(a1-3)]Gal(b1-3)GlcNAc(b1-2)Man(a1-6)]Man(b1-4)GlcNAc(b1-4)GlcNAc
# Method in brief: as §1
# [22] = target: Fuc(a1-2)[Gal(a1-3)]Gal(b1-3)GlcNAc(b1-2)Man(a1-3)[Fuc(a1-2)[Gal(a1-3)]Gal(b1-3)GlcNAc(b1-2)Man(a1-6)]Man(b1-4)GlcNAc(b1-4)[Fuc(a1-6)]GlcNAc
# Method in brief: as §1
# [23] = target: Fuc(a1-2)[Gal(a1-3)]Gal(b1-3)GlcNAc(b1-3)GalNAc
# Method in brief: as §1
# [24] = target: Fuc(a1-2)[Gal(a1-3)]Gal(b1-3)GlcNAc(b1-6)GalNAc
# Method in brief: as §1
# [25] = target: Fuc(a1-2)[Gal(a1-3)]Gal(b1-4)Glc
# Method in brief: as §1
# [26] = target: Fuc(a1-2)[Gal(a1-3)]Gal(b1-4)GlcNAc
# Method in brief: as §1
# [27] = target: Fuc(a1-2)[Gal(a1-3)]Gal(b1-4)GlcNAc(b1-2)Man
# Method in brief: as §1
# [28] = target: Fuc(a1-2)[Gal(a1-3)]Gal(b1-4)GlcNAc(b1-2)Man(a1-3)[Fuc(a1-2)[Gal(a1-3)]Gal(b1-4)GlcNAc(b1-2)Man(a1-6)]Man(b1-4)GlcNAc(b1-4)GlcNAc
# Method in brief: as §1
binder,measurement,setting,value
OGAA (protein) MVQKESQATLEERESELSSNPAASAGASLEPPAAPAPGEDNPAGAGGAAVAGAAGGARRFLCGVVEGFYGRPWVMEQRKELFRRLQKWELNTYLYAPKDDYKHRMFWREMYSVEEAEQLMTLISAAREYEIEFIYAISPGLDITFSNPKEVSTLKRKLDQVSQFGCRSFALLFADIDHNMCAADKEVFSSFAHAQVSITNEIYQYLGEPETFLFCPTEYCGTFCYPNVSQSPYLRTVGEKLLPGIEVLWTGPKVVSKEIPVESIEEVSKIIKRAPVIWDNIHANDYDQKRLFLGPYKGRSTELIPRLKGVLTNPNCEFEANYVAIHTLATWYKSNMNGVRKDVVMTDSEDSTVSIQIKLENEGSDEDIETDVLYSPQMALKLALTEWLQEFGVPHQY,glycan array binding signal (z-score),[1],-0.017
same,glycan array binding signal (z-score),[2],-0.064
same,glycan array binding signal (z-score),[3],0.083
same,glycan array binding signal (z-score),[4],-0.108
same,glycan array binding signal (z-score),[5],-0.087
same,glycan array binding signal (z-score),[6],-0.114
same,glycan array binding signal (z-score),[7],-0.07
same,glycan array binding signal (z-score),[8],0.139
same,glycan array binding signal (z-score),[9],-0.076
same,glycan array binding signal (z-score),[10],-0.076
same,glycan array binding signal (z-score),[11],-0.068
same,glycan array binding signal (z-score),[12],-0.08
same,glycan array binding signal (z-score),[13],-0.036
same,glycan array binding signal (z-score),[14],-0.06
same,glycan array binding signal (z-score),[15],-0.055
same,glycan array binding signal (z-score),[16],1.74
same,glycan array binding signal (z-score),Fuc(a1-2)Gal6S(b1-4)Glc,-0.073
same,glycan array binding signal (z-score),[17],0.205
same,glycan array binding signal (z-score),Fuc(a1-2)[Gal(a1-3)]Gal,-0.049
same,glycan array binding signal (z-score),[18],-0.034
same,glycan array binding signal (z-score),[19],-0.067
same,glycan array binding signal (z-score),[20],0.126
same,glycan array binding signal (z-score),[21],-0.069
same,glycan array binding signal (z-score),[22],0
same,glycan array binding signal (z-score),[23],-0.109
same,glycan array binding signal (z-score),[24],-0.109
same,glycan array binding signal (z-score),[25],-0.064
same,glycan array binding signal (z-score),[26],-0.078
same,glycan array binding signal (z-score),[27],-0.084
same,glycan array binding signal (z-score),[28],-0.092
